From publication PMC4336329 (PLoS ONE, 2015)
The campaign covered roughly 310,000 compounds. About 2,200 (0.71%) showed an effect of 50% or more. The effect is printed as a negative number. The list shows a part of the results.

What follows are compounds tested against human ether-à-go-go-related gene (hERG) potassium channel (human, UniProt Q12809) (assay: primary screen, population patch clamp on CHO cells stably expressing hERG).
Sequence of human ether-à-go-go-related gene (hERG) potassium channel (Q12809 whole entry, looked up): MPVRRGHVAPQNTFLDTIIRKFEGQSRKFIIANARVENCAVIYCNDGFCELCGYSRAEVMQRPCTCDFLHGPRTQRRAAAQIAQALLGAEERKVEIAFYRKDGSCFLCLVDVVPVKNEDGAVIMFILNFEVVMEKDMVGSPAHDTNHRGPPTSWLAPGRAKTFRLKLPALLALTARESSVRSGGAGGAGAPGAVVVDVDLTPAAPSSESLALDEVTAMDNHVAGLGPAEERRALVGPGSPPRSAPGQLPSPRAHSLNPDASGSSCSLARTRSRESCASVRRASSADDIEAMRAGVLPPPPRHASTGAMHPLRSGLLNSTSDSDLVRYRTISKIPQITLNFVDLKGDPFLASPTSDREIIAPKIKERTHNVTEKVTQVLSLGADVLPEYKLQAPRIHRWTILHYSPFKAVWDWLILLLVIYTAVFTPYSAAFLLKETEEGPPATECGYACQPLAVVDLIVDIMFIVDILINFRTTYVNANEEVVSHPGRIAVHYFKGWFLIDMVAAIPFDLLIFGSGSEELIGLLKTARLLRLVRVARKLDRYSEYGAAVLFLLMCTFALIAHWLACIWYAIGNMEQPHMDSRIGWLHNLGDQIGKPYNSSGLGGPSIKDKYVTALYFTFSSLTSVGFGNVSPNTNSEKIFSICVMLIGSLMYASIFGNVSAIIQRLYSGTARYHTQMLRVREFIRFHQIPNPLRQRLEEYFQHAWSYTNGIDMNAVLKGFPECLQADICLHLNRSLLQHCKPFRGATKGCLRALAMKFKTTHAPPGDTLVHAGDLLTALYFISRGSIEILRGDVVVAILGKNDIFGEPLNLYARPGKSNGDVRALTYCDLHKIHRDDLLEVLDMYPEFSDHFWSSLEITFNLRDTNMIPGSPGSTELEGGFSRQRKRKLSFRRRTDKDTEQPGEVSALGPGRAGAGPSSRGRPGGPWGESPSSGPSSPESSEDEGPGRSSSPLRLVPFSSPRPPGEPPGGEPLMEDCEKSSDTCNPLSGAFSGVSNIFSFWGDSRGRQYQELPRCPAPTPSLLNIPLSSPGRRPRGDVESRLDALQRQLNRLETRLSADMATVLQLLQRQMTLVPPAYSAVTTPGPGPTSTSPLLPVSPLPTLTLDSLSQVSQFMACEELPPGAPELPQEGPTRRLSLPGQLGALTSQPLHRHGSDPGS
In the case of `COc1ccc(-n2c(Cc3ccccc3)nc3ccccc3c2=O)cc1`, the “hERG current change (%, negative = inhibition) at 1uM” value is reported as -33.8%.
`CN=C(NC1CCCCC1)c1ccc(Cl)cc1.Cl` was tested, and the “hERG current change (%, negative = inhibition) at 1uM” value was 6.89%.
`COc1ccc(NC(=O)COc2ccc(C(=O)NC3CCCc4ccccc43)cc2OC)cc1` (stereo not drawn) was tested, and the “hERG current change (%, negative = inhibition) at 1uM” value was 1.58%.
For `CC(=O)Cc1nsc(NC(=O)c2ccco2)n1`, the “hERG current change (%, negative = inhibition) at 1uM” value was 10.9%.
`Cc1nn(C(=O)c2ccc([N+](=O)[O-])cc2)c(C)c1Br` was tested, and the “hERG current change (%, negative = inhibition) at 1uM” value was 16.2%.
`c1ccc2c(c1)CC1(CCCCC1)n1nnnc1-2` was tested, and the “hERG current change (%, negative = inhibition) at 1uM” value was 10.1%.
In the case of `CC(=O)N1CCN(c2ccc(NCc3ccc(C)cc3)cc2)CC1`, the “hERG current change (%, negative = inhibition) at 1uM” value is reported as 14.5%.
In the case of `COc1ccc([N+](=O)[O-])cc1N(CC(=O)NC1CCCC1)S(C)(=O)=O`, the “hERG current change (%, negative = inhibition) at 1uM” value is reported as 19.6%.
With `C=CCn1c(C#N)c(N)sc1=N` the “hERG current change (%, negative = inhibition) at 1uM” value was 2.53%.
`Cc1ccc(C)c(NC(=O)C(=O)NCCc2c[nH]c3ccccc23)c1` was tested, and the “hERG current change (%, negative = inhibition) at 1uM” value was 13%.
`COc1ccc2[nH]c(C(=O)O)c(CCNC(=O)/C=C/c3ccc(O)c(OC)c3)c2c1` was tested, and the “hERG current change (%, negative = inhibition) at 1uM” value was 13.1%.
`O=C(N/N=C/c1cccc2ccccc12)c1cccc(F)c1` was tested, and the “hERG current change (%, negative = inhibition) at 1uM” value was 12.3%.
For `Cc1ccc(C(=O)N2CC(C)OC(C)C2)c(Cl)c1` (stereo not drawn), the “hERG current change (%, negative = inhibition) at 1uM” value was 4.1%.
`Cc1noc(C)c1CS(=O)(=O)c1ccc(Br)cc1` was tested, and the “hERG current change (%, negative = inhibition) at 1uM” value was 13.7%.
In the case of `CCC(=O)Nc1nc2nc(C)cc(=O)n2[nH]1`, the “hERG current change (%, negative = inhibition) at 1uM” value is reported as 7.94%.
For `C=CCC(CC=C)(NC(=O)c1cccc(C)c1)c1ccccc1`, the “hERG current change (%, negative = inhibition) at 1uM” value was 8.19%.
For `O=C(O)c1cccc(NC(=O)c2ccccc2NC(=O)c2ccco2)c1`, the “hERG current change (%, negative = inhibition) at 1uM” value was 2.85%.
`Cc1onc(-c2ccccc2)c1C(=O)NCc1ccccc1F` was tested, and the “hERG current change (%, negative = inhibition) at 1uM” value was 14.3%.
For `COC(C)(C)[C@H](O)COc1c2ccoc2cc2oc(=O)ccc12`, the “hERG current change (%, negative = inhibition) at 1uM” value was 14.3%.
With `O=C(C1=C[C@H](c2ccc(C(F)(F)F)cc2)C[C@H](OCCCCO)O1)N1CCOCC1` the “hERG current change (%, negative = inhibition) at 1uM” value was -1.21%.
With `CCc1cc2ccc(C)cc2nc1SCC(=O)c1ccc(NC(C)=O)cc1` the “hERG current change (%, negative = inhibition) at 1uM” value was 1.32%.
For `Cc1occc1-c1nnc(SCC(=O)N2CCc3ccccc32)o1`, the “hERG current change (%, negative = inhibition) at 1uM” value was 9.98%.
With `COc1ccccc1NCC(=O)N/N=C/c1cccnc1` the “hERG current change (%, negative = inhibition) at 1uM” value was 4.49%.
For `CNCCc1ccc(O)c(O)c1.Cl`, the “hERG current change (%, negative = inhibition) at 1uM” value was 20.6%.
With `CC(=O)c1ccc2c(c1)Nc1ccccc1S2` the “hERG current change (%, negative = inhibition) at 1uM” value was 0.943%.
For `CCOC(=O)CNC(=O)c1sc(NC(=O)c2ccccc2F)nc1C`, the “hERG current change (%, negative = inhibition) at 1uM” value was 5.43%.
With `O=C(C1CCCN(S(=O)(=O)c2ccc(Br)s2)C1)N1CCCCCC1` (stereo not drawn) the “hERG current change (%, negative = inhibition) at 1uM” value was 2.77%.
